Measured values as given in article PMC11637378, “Optogenetic screening of MCT1 activity implicates a cluster of non-steroidal anti-inflammatory drugs (NSAIDs) as inhibitors of lactate transport” (PLOS ONE, 2024).

Columns and labels:
[1] = target: R. norvegicus MCT1 (F360C) (UniProt P36035+P53987, F360C); assay: High throughput assay optimization and validation (96/384-well, AZD3965 versus DMSO, Z-factor)
[2] = system: R. norvegicus MCT1 (F360C); assay: as above; details: for OD600 AVG: 10 μM, 24 hours

R. norvegicus MCT1 (F360C), sequence (P36035+P53987 fused P53987:F360C): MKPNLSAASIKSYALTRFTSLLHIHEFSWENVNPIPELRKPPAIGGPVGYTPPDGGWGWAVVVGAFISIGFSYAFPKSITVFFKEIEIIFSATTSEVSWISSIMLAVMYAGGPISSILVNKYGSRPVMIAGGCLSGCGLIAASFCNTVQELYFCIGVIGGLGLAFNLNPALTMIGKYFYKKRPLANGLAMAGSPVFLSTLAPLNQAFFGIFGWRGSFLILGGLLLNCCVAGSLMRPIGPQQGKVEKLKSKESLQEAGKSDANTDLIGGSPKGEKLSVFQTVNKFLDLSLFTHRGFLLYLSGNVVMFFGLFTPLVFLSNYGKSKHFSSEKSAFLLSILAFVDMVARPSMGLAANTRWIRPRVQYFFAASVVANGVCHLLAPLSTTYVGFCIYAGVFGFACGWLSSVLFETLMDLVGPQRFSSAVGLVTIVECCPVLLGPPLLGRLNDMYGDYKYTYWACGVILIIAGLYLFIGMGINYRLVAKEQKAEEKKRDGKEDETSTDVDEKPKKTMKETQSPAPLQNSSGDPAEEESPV

For Cc1[nH]nc(C(F)(F)F)c1Cc1sc2c(c1C(=O)N1C[C@](C)(O)CO1)c(=O)n(C)c(=O)n2C(C)C [AZD3965], the “growth in continuous darkness” value ([1]; 384-well, 48-hour period non-permissive (Fig 3C)) was “do not recover growth”, the “growth after transfer to permissive blue light” value ([1]; 384-well, 24 h non-permissive then 24 h permissive (Fig 3C)) was “rescues the growth” and the “OD600 average of 10 wells” value ([1]; SAWy741 (MCT1), AZD3965 10 μM, non-permissive, 384-well 50 μl without shaking, three independent replicates (S7 Fig), listed as AZD) was 0.131 and 0.1123 and 0.1286. The “mean plate reading (10 wells)” value ([1]; strain SAWy741, Replicate1 second read, left at non-permissive conditions throughout) was 0.7466, the “mean plate reading (10 wells)” value ([1]; strain SAWy741, non-permissive phase, first read, Replicates 1-3, listed as AZD) was 0.131 and 0.1123 and 0.1286 and the “mean plate reading (10 wells)” value ([1]; strain SAWy741, perm (permissive) phase, second read, Replicates 2, 3, listed as AZD) was 0.7973 and 0.8192. For the same compound, the “OD600 AVG” value ([2]; 96-well, Non-shaking + breathe-right, Volume 50, SAWy710 (empty vector)) was 0.0547, the “OD600 AVG” value ([2]; 96-well, Non-shaking + breathe-right, Volume 50, SAWy738 (MCT1)) was 0.07155 and the “OD600 AVG” value ([2]; 96-well, Non-shaking + breathe-right, Volume 100, SAWy710 (empty vector)) was 0.06775. The “OD600 AVG” value ([2]; 96-well, Non-shaking + breathe-right, Volume 100, SAWy738 (MCT1)) was 0.09475, the “OD600 AVG” value ([2]; 96-well, Non-shaking + breathe-right, Volume 200, SAWy710 (empty vector)) was 0.0846 and the “OD600 AVG” value ([2]; 96-well, Non-shaking + breathe-right, Volume 200, SAWy738 (MCT1)) was 0.1187. The “OD600 AVG” value ([2]; 96-well, Non-shaking, Volume 50, SAWy710 (empty vector)) was 0.05153, the “OD600 AVG” value ([2]; 96-well, Non-shaking, Volume 50, SAWy738 (MCT1)) was 0.06245 and the “OD600 AVG” value ([2]; 96-well, Non-shaking, Volume 100, SAWy710 (empty vector)) was 0.07205. For the same compound, the “OD600 AVG” value ([2]; 96-well, Non-shaking, Volume 100, SAWy738 (MCT1)) was 0.09025, the “OD600 AVG” value ([2]; 96-well, Non-shaking, Volume 200, SAWy710 (empty vector)) was 0.09027 and the “OD600 AVG” value ([2]; 96-well, Non-shaking, Volume 200, SAWy738 (MCT1)) was 0.1228. For the same compound, the “OD600 AVG” value ([2]; 96-well, Shaking, Volume 50, SAWy710 (empty vector)) was 0.0545, the “OD600 AVG” value ([2]; 96-well, Shaking, Volume 50, SAWy738 (MCT1)) was 0.0612 and the “OD600 AVG” value ([2]; 96-well, Shaking, Volume 100, SAWy710 (empty vector)) was 0.0709. The “OD600 AVG” value ([2]; 96-well, Shaking, Volume 100, SAWy738 (MCT1)) was 0.07047, the “OD600 AVG” value ([2]; 96-well, Shaking, Volume 200, SAWy710 (empty vector)) was 0.1137 and the “OD600 AVG” value ([2]; 96-well, Shaking, Volume 200, SAWy738 (MCT1)) was 0.1566. The “OD600 AVG” value ([2]; 384-well, Non-shaking + breathe-right, 25 ul, SAWy710 (empty vector)) was 0.07738, the “OD600 AVG” value ([2]; 384-well, Non-shaking + breathe-right, 25 ul, SAWy738 (MCT1)) was 0.09315 and the “OD600 AVG” value ([2]; 384-well, Non-shaking + breathe-right, 50 ul, SAWy710 (empty vector)) was 0.103. For the same compound, the “OD600 AVG” value ([2]; 384-well, Non-shaking + breathe-right, 50 ul, SAWy738 (MCT1)) was 0.155, the “OD600 AVG” value ([2]; 384-well, Non-shaking + breathe-right, 100 ul, SAWy710 (empty vector)) was 0.1367 and the “OD600 AVG” value ([2]; 384-well, Non-shaking + breathe-right, 100 ul, SAWy738 (MCT1)) was 0.2457. The “Z-score versus SAWy710 DMSO treatment (average)” value ([2]; 384-well, Non-shaking + breathe-right, Volume 50, SAWy710) was 0.2346, the “Z-score versus SAWy710 DMSO treatment (average)” value ([2]; 384-well, Non-shaking + breathe-right, Volume 50, SAWy738) was 7.403 and the “OD600 AVG” value ([2]; 384-well, Non-shaking, 25 ul, SAWy710 (empty vector)) was 0.06877. For the same compound, the “OD600 AVG” value ([2]; 384-well, Non-shaking, 25 ul, SAWy738 (MCT1)) was 0.08127, the “OD600 AVG” value ([2]; 384-well, Non-shaking, 50 ul, SAWy710 (empty vector)) was 0.09715 and the “OD600 AVG” value ([2]; 384-well, Non-shaking, 50 ul, SAWy738 (MCT1)) was 0.1407. The “OD600 AVG” value ([2]; 384-well, Non-shaking, 100 ul, SAWy710 (empty vector)) was 0.1266, the “OD600 AVG” value ([2]; 384-well, Non-shaking, 100 ul, SAWy738 (MCT1)) was 0.2447 and the “Z-score versus SAWy710 DMSO treatment (average)” value ([2]; 384-well, Non-shaking, Volume 50, SAWy710) was -0.5592. The “Z-score versus SAWy710 DMSO treatment (average)” value ([2]; 384-well, Non-shaking, Volume 50, SAWy738) was 3.431, the “OD600 AVG” value ([2]; 384-well, Shaking, 25 ul, SAWy710 (empty vector)) was 0.08755 and the “OD600 AVG” value ([2]; 384-well, Shaking, 25 ul, SAWy738 (MCT1)) was 0.09823. For the same compound, the “OD600 AVG” value ([2]; 384-well, Shaking, 50 ul, SAWy710 (empty vector)) was 0.09387, the “OD600 AVG” value ([2]; 384-well, Shaking, 50 ul, SAWy738 (MCT1)) was 0.1292 and the “OD600 AVG” value ([2]; 384-well, Shaking, 100 ul, SAWy710 (empty vector)) was 0.1287. The “OD600 AVG” value ([2]; 384-well, Shaking, 100 ul, SAWy738 (MCT1)) was 0.2147, the “OD600 average of 10 wells” value ([2]; SAWy710 (empty vector), AZD3965 10 μM, non-permissive, 384-well 50 μl without shaking, three independent replicates (S7 Fig), listed as AZD) was 0.1099 and 0.1063 and 0.09977 and the “mean plate reading (10 wells)” value ([2]; strain SAWy710, Replicate1 second read, left at non-permissive conditions throughout) was 0.1838. For the same compound, the “mean plate reading (10 wells)” value ([2]; strain SAWy710, non-permissive phase, first read, Replicates 1-3, listed as AZD) was 0.1099 and 0.1063 and 0.09977 and the “mean plate reading (10 wells)” value ([2]; strain SAWy710, perm (permissive) phase, second read, Replicates 2, 3, listed as AZD) was 0.7846 and 0.7825.

“And” between values parts separate entries of the source, which are not always exact repeats. Equal values may be shown once.
